# Results: the supplement of paper PMC3334620
# Over roughly 33,000 sequences, “E-score (-0.5 to 0.5)” has its median near -0.056; the highest 2% begin near 0.38. This is one part of the list.
# Molecular target: Stb4 (UniProt P50104)
# Assay: PBM E-score (8-mer binding enrichment) (E-score (-0.5 to 0.5)); higher = stronger / more preferred TF binding; most listed sequences are background and not binding sites
# Details: protein concentration: 200 nM; construct: GST-DNA-binding domain
# Outline: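 Masliner-normalised scans of fluorescent anti-GST signal were the basis for scoring. That signal came from GST-tagged yeast transcription factors applied at about 100-200 nM to double-stranded universal all-10-mer Agilent arrays on fresh or once-stripped slides. Each ungapped eight-base word, pooled with its reverse complement, received an E-score from the Universal PBM Analysis Suite.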
row,Sequence,PBM E-score
1,ACGAGCGA,-0.402
2,GACTACAA,-0.216
3,GAATGGCA,-0.0284
4,CAGGAGGA,-0.256
5,CGCAGATA,-0.0801
6,ATCTCGAC,-0.239
7,GTATCTAA,-0.0722
8,ACAAAAAC,-0.0851
9,GAACATAC,0.168
10,GGCAACAC,0.0451
11,AGGCAGTA,-0.245
12,TAACGAAA,0.00974
13,TCCGTACA,0.257
14,GGTACCGA,0.361
15,CACAGCTG,-0.197
16,ATTGTACC,0.139
17,CTCACGGC,0.0662
18,TACGCCGA,0.26
19,GGCACTTA,0.0496
20,AAATAGGG,0.0217
21,AGTCTTAG,-0.124
22,CAGTTAGG,-0.281
23,GAAAAACC,0.266
24,AAATTTAC,-0.0114
25,CTCGGTGC,0.244

row,Sequence,PBM E-score
1,CGCACTGC,-0.183
2,AAGCGGGG,-0.173
3,CGTTTAAG,-0.0291
4,ACGCAGGG,-0.185
5,AACCATCG,0.106
6,AGCTCAGC,-0.375
7,AACTGTAC,-0.172
8,GTGAATCA,-0.157
9,TCAATGCA,-0.185
10,CTGATGTA,-0.088
11,AGCGAATA,-0.196
12,AAATGTGT,-0.121
13,AGACGTCT,-0.218
14,ACCTTGAG,-0.0731
15,ACCAGGGT,-0.19
16,CAGAATGG,-0.0738
17,GGGTAAAC,0.205
18,GAACAGTA,0.133
19,GTTATACA,-0.0637
20,CCGGCCCC,0.219
21,ATCATGCG,-0.0417
22,CGCAAGGC,0.00538
23,ATCCTACA,-0.14
24,CGGAGCAC,0.199
25,ATTCAAAG,-0.235

row,Sequence,PBM E-score
1,ACGGGGAG,-0.0728
2,CGTAACAG,0.0322
3,CGCGGGTC,0.213
4,CAACGACA,-0.11
5,CCTTAGTA,-0.124
6,CAGACCTA,-0.318
7,AACTCCGC,0.114
8,AGTTCGAG,-0.165
9,AAATTCAC,0.105
10,CACCGAAG,0.228
11,ATGATCCC,0.157
12,GATAAATA,0.0194
13,TGGTTGAA,-0.175
14,GGCTAAAC,0.151
15,GGGCGCAA,-0.261
16,GGATTATA,0.117
17,AACGTCAC,-0.123
18,ACAAATCA,-0.0983
19,AGAGATGG,-0.101
20,GTGATAAC,-0.0714
21,TAGAGAGA,-0.172
22,CCCCAGGG,-0.153
23,GGATCACA,0.228
24,GCGTCGCC,-0.117
25,CAATTGCC,0.0172

row,Sequence,PBM E-score
1,CACCGCCA,-0.0882
2,CTCCAACC,0.046
3,ATGCCCAC,-0.065
4,CGGTTCTA,0.188
5,CTCGAAAA,-0.32
6,CAAAAACG,0.144
7,CAACCAAG,-0.299
8,CGGGGGCA,0.0216
9,ACATGAGC,-0.175
10,GAACGATA,-0.00218
11,GACGAATC,-0.125
12,AGTAACAG,0.0685
13,AAGCCCGG,0.301
14,CGCTCATA,-0.138
15,AGATACCC,0.166
16,AAACCCTA,-0.16
17,CAGACCCC,-0.0742
18,ACCTCTGG,-0.0495
19,ACGTACAG,-0.037
20,ACGACGCG,-0.0636
21,GCAGCAGC,-0.243
22,GCACATCA,-0.14
23,AGGAGATG,-0.0793
24,TAGACTAA,-0.21
25,CACTGTGG,-0.332

row,Sequence,PBM E-score
1,GGGCCAAA,0.0592
2,CGTTGATA,0.0343
3,GTTCCAGA,-0.138
4,ATTCAATC,-0.0479
5,TGGGTTAA,-0.126
6,ACGTTACC,0.0953
7,CCAGGGAA,-0.219
8,GTGTCACA,0.124
9,CGATGGGA,0.0778
10,ACACCTGG,-0.0317
11,GAAGGTCC,0.0332
12,ATGGTTCG,0.131
13,GGTCAATA,-0.139
14,CTAGTGTC,-0.00474
15,AATTAATT,-0.215
16,AGGACGTG,-0.229
17,GTTCTCGA,-0.166
18,AGGCCCCC,-0.044
19,TAAGTCGA,-0.226
20,GTTCGATA,-0.104
21,AATCCCCG,0.262
22,ATCCGGGC,0.405
23,AAAGGTCC,-0.0874
24,ACCTTGGA,-0.295
25,AGAGAGTG,-0.176

row,Sequence,PBM E-score
1,ACTTATGA,-0.143
2,GCTTTTTA,-0.0236
3,CTGGATAA,0.137
4,ACGTGAGA,-0.173
5,CCGGAAGA,0.389
6,AGTAAGGC,-0.0381
7,GAGTTGGC,-0.0113
8,CCCCAATA,-0.3
9,AAACCATC,0.161
10,AACCGACG,0.304
11,AGTTCTAA,-0.0393
12,AGTGACTC,-0.187
13,ACCACGCA,-0.233
14,CATACGCC,-0.11
15,CTGAGAGA,-0.241
16,ATCAGTGC,-0.117
17,GTAACCGA,0.386
18,ATGAAGTG,-0.195
19,ACCTCCAG,-0.0534
20,CGACAGGC,-0.156
21,ACGGGTAG,0.301
22,ATGTACGA,0.0589
23,CAGGAACG,-0.144
24,AAAAGCGT,-0.116
25,AAGCTATC,0.0536

row,Sequence,PBM E-score
1,GCCATGAC,-0.122
2,GTAATTCA,-0.045
3,TCTCACCA,-0.043
4,GCGGATCA,0.196
5,CATATGCC,-0.0643
6,ATTTGCCA,-0.26
7,AGATAACT,-0.0589
8,CATCTTGC,-0.12
9,ACCGCAAT,0.152
10,CCACAGCA,-0.125
11,ATGCTAAA,-0.212
12,CAAAAATC,-0.141
13,AGCGTAAA,-0.0609
14,AACACGCG,-0.0357
15,AAAATTTG,-0.174
16,GGTGCGTA,-0.131
17,ATGGTGTA,-0.232
18,GGAGCACA,-0.00639
19,AGCGCTCC,-0.039
20,GATGATAA,-0.0782
21,ATTCAAGG,-0.2
22,AACTGAGA,-0.239
